The RNAGym collection of RNA variant scans (doi:10.7554/elife.90254)
Read counts are not given, so values of variants with three or more changes are uncertain.

B1: OR4K15 (parent)
chain: GUUAACGGUCAUAGGCCAUGGAAACUAGGAGCACCAUUUCGCUGCCAGUGAAGAAAUGAACAAAGAAAAUCUGGGCCAGGCAGGCAUCAAAAGAAAUAGUCUUGCGCUCAACCAGAAAGUCUGUAAUCAUUUUAAGGGUA

Variants of: B1
Experiment: self-cleavage, relative activity (ratio to wild type); higher = more cleavage; in vitro, sequencing; the parent is a self-cleaving ribozyme

| Variant | self-cleavage |
| --- | --- |
| GUUAACGGCCAUAGGCCAUGGAAACUAGGAGCACCAUUUCGCCGCCAGUGAAGAAAUGCACAAAGAAAAUCUGGGCCAGGCAGGCAUCAAAAGAAAUAGUCUUGCGCUCAACCAGAAAGUCUGUAAUCAUCUUAAGGGUC [U9C U43C A59C U131C A140C] | 0.55 |
| GUUAACGGCCAUAGGCCAUGGAAACUAGGAGCACCAUUUCGCUGCCAGUGAAGAAAAGAACAAGGAAAAUCUGGGCCAGGCAGGCACCAAAAGAAAUAGUCUUGCGCUCAGCCAGAAAGUCUGUAAUCAUUUUAAGGGUA [U9C U57A A64G U87C A111G] | 0.01 |
| GUUAACGGCCAUAGGCCAUGGAAACUAGGAGCACCAUUUCGCCGCCAGUGAAGAAAUGAACAAAGAAGAUCUGGGCCAGGCAGGCAUCAAAAGAAAUAGUCUUGCGCUCAACCAGAAGGUCUGUAAUCAUUUUAAGGGUA [U9C U43C A68G A118G] | 0.77 |
| GUUAACGGCCAUAGGCCAUGGAAACUAGGAGCACCAUUUCGCUGCCAGCGAAGAAAUGAACAAAGAGGAUCUGGGCCAGGCAGGCAUCAAAAGAAAUAGUCUUGCGCUCAACCAGAAAGUCUGUAAUCAUUUUAAGGGUA [U9C U49C A67G A68G] | 1.34 |
| GUUAACGGCCAUAGGCCAUGGAAACCAGGAGCACCACUUCGCUGCCUGUGAAGAAAUGAACAAAGAAAAUCUGGGCCAGGCAGGCAUCAAAAGAAAUAGUCUUGCGCUCAACCAGAAAGUCUGUAAUCAUUUUAAGGGUA [U9C U26C U37C A47U] | 0.78 |
| GUUAACGGCCAUAGGCCAUGGAAACUAGGAGCACCAUUCCGCUGCCAGUGAAGAAAUGAACAAAGAAAAUCUGGGCCAGGCAGGCAUCAAAAGAAAAAGUCUUGCGCUCAACCAGAAAGUCUGUAAUCAUUUUAAGGGUA [U9C U39C U97A] | 2.65 |
| GUUAACGGCCAUAGGCCAUGGAAACUAGGAGCACCAUUUCGCCGCCAGUGAAGAAAUGAACAAAGAAAAUCUGGGCCAGGCAGGAAUCUAAAGAAAUAGCCUUGCGCUCAACCAGAAAGUCUGUAAUCAUUUUAAGGGUA [U9C U43C C85A A89U U100C] | 1.31 |
| GUUAACGGCCAUAGGCCAUGGAAACUAGGAGCACCAUUCCGCUGCCAGUGAAGAAAUGAACAAAGAAAAUCUGGGCCAGGCAAGCAUCAAAAGAAAUAGUCUUGCGCUCAACCAGAAAGUCUGUAAUCAUUUUAAGGGUA [U9C U39C G83A] | 1.74 |
| GUUAACGGCCAUAGGCCAUGGAAACUAGGAGCACCAUUUCGCAGCCAGUGAAGAAAAGAACAAAGAAAAUCUGGGCCGGGCAGGCAUCGAAAGAGAUAGUCUUGCGCUCAACCAGAAAGUCUGUAAUCAUUUUAAGGGUA [U9C U43A U57A A78G A89G A95G] | 0.37 |
| GUUAACGGCCAUAGGCCAUGGAAACUAGGAGCACCAUUCCGCUGCCAGUGAAGAAAUGAACAAAGGAAAUCUGGGCCAGGCAGGCAUCAAAAGAAAUAGUCUUGCUCUCAACCAGAAAGUCUGUAAUCAUUUUAAGGGUA [U9C U39C A66G G106U] | 0.02 |
| GUUAACGGCCAUAGGCCAUGGAAACUAGGAGCACCAUUACGCUGCCAGUGAAGAAACGAACAAAGAAAAUCUGGGCCAGGCAGGCAUCAAAAGAAAUAGUCUUGCGCUCAACCAGAAAGUCUGUAAUCAUUUUAAGGGUA [U9C U39A U57C] | 0.81 |
| GUUAACGGCCAUAGGCCAUGGAAACUAGGAGCACCAUCUCGCCGCCAGUGAAGAGAUGAACAAAGAAAAUCUGGGCCAGGCAGGCAUCAAAAGAAAUAGUCUUGCGCUCAACCAGAAAGUCUGUAAUCAUUUUAAGGGUA [U9C U38C U43C A55G] | 0.94 |
| GUUAACGGCCAUAGGCCAUGGAAACUAGGAGCACCACUUCGCUGCCAGUGAAGAAAUGAACAAAGAAAAUCUGGGCCAGGCAGGCAUCAAAAGAAAUAGUCAUGCGCUCAACCAGAAAGUCUGUAAUCAUUUUAAGGGUA [U9C U37C U102A] | 1.18 |
| GUUAACGGCCAUAGGCCAUGGAAACUAGGAGCACCAUUCCGCUGCCAGUGAAGAAAUGAUCAAAGAAAAUCUGGGCCAGGCAGGCAUCAAAAGAAAUAGUCUUGCGCUCAACCAGAAAGUCUGUAAUCAUUUUAGGGGUA [U9C U39C A60U A135G] | 1.27 |
| GUUAACGGCCAUAGGCCAUGGAAACUAGGAGCACCACUUCGCUGCCAGUGAAGAAAUGAACAAAGAAAAUCUGGGCCAGGCAGGCAUCAAAAGAAAUAGUCUUGCGCUCAACCAGAAAGUCUGUAAUCAUUUUAAGGGCA [U9C U37C U139C] | 1.58 |
| GUUAACGGCCAUAGGCCAUGGAAACUAGGAGCACCAUCUCGCUGCCAGUGAAGAUAUGAACAAAGAAAAUAUGGGCCAGGCAGGCAUCAAAAGAAGUAGUCUUGCGCUCAACCAGAAAGUCUGUAAUCAUUUUAAGGGUA [U9C U38C A55U C71A A96G] | 1.03 |
| GUUAACGGCCAUAGGCCAUGGAAACUAGGAGCACCAUUUCGCUGCCAGUGAAGAAAAGAACAAAGAAAAUCUGGGCCAGGCAGGCAUCAAAAGAAAUAGUCUUGCGCUCAACCCGAAAGUCUGUAAUCAUUUUAAGGGUA [U9C U57A A114C] | 0.04 |
| GUUAACGGCCAUAGGCCAUGGAAACUAGGAGCACCAUUUCGCUGCCAGCGAAGAAAUGAACAAAGAAAAUCUGGGCCAGGCAGGCAUCAAAAGAAAUAGUCUUGCGCUCAACCAGAAAGUCUGUAAUCAUUCUAAGGGUA [U9C U49C U132C] | 1.43 |
| GUUAACGGCCAUAGGCCAUGGAAACUAGGAGCACCAUUUCGCUGCCAGUGAAGAAACGAACAAAGAAAAUCUGGGCCAGGCAGGCGUCAAAAGAAAUAGUCUUGCGCUCAACCAGAAAGUCUGUAAUCAUUUUAAGGGUA [U9C U57C A86G] | 1.22 |
| GUUAACGGCCAUAGGCCAUGGAAACUAGGAGCACCACUUCGCUGCCAGUGAAGAAAUGAACAGAGAAAAUCUGGGCCAGGCAGGCAUCAAAAGAAAUAGUCUUGCGCUCAACCAGAAAGUCUGUAAUCAUUCUAAGGGUA [U9C U37C A63G U132C] | 2.62 |
| GUUAACGGCCAUAGGCCAUGGAAACUAGGAGCACCAUUCCGCUGCCAGUGAAGAAAUGAACAAAGAAAAUCUGGGCCAGGCAGGCAUCAAAAGAAAUAGUCUUGCGCUCAACCAGGAAGUCUGUAAUCAUUUUAAGGGUA [U9C U39C A116G] | 1.29 |
